Measured values as given in the supplement of paper PMC8728848.
This is one part of the list.

Tests used:
Experiment in all cases: glycan array binding signal (z-score within array); higher = stronger binding
Settings in all cases: glycan notation: IUPAC condensed, linker removed
[1] = biological target: Neu5Ac(a2-3)Gal(b1-4)[Fuc(a1-3)]GlcNAc
Method in brief: (§1)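 The binding signal is a Z-score computed within each array. Data were drawn from 3228 arrays in the Consortium for Functional Glycomics database, restricted to those with a known protein sequence. Scores were averaged over arrays of the same protein sequence at different concentrations or buffers, and over linkers, and negative values can be taken as non-binding.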

[2] = biological target: Neu5Ac(a2-3)Gal(b1-4)[Fuc(a1-3)]GlcNAc(b1-3)Gal
Method in brief: as §1

[3] = biological target: Neu5Ac(a2-3)Gal(b1-4)[Fuc(a1-3)]GlcNAc(b1-3)Gal(b1-4)GlcNAc
Method in brief: as §1

[4] = biological target: Neu5Ac(a2-3)Gal(b1-4)[Fuc(a1-3)]GlcNAc(b1-3)Gal(b1-4)[Fuc(a1-3)]GlcNAc(b1-3)Gal(b1-4)[Fuc(a1-3)]GlcNAc
Method in brief: as §1

[5] = biological target: Neu5Ac(a2-3)Gal(b1-4)[Fuc(a1-3)]GlcNAc6S
Method in brief: as §1

[6] = biological target: Neu5Ac(a2-3)Gal6S(b1-4)GlcNAc
Method in brief: as §1

[7] = biological target: Neu5Ac(a2-3)Gal6S(b1-4)[Fuc(a1-3)]GlcNAc
Method in brief: as §1

Neu5Ac(a2-3)GalNAc = biological target: Neu5Ac(a2-3)GalNAc
Method in brief: as §1

[8] = biological target: Neu5Ac(a2-3)GalNAc(b1-4)GlcNAc
Method in brief: as §1

[9] = biological target: Neu5Ac(a2-3)[GalNAc(b1-4)]Gal(b1-4)Glc
Method in brief: as §1

[10] = biological target: Neu5Ac(a2-3)[GalNAc(b1-4)]Gal(b1-4)GlcNAc
Method in brief: as §1

[11] = biological target: Neu5Ac(a2-3)[Neu5Ac(a2-6)]GalNAc
Method in brief: as §1

Neu5Ac(a2-6)Gal = biological target: Neu5Ac(a2-6)Gal
Method in brief: as §1

Neu5Ac(a2-6)Gal(b1-4)Glc = biological target: Neu5Ac(a2-6)Gal(b1-4)Glc
Method in brief: as §1

[12] = biological target: Neu5Ac(a2-6)Gal(b1-4)GlcNAc
Method in brief: as §1

[13] = biological target: Neu5Ac(a2-6)Gal(b1-4)GlcNAc(b1-2)Man(a1-3)[Neu5Ac(a2-6)Gal(b1-4)GlcNAc(b1-2)Man(a1-6)]Man(b1-4)GlcNAc(b1-4)GlcNAc
Method in brief: as §1

[14] = biological target: Neu5Ac(a2-6)Gal(b1-4)GlcNAc(b1-3)Gal(b1-4)GlcNAc
Method in brief: as §1

[15] = biological target: Neu5Ac(a2-6)Gal(b1-4)GlcNAc(b1-3)Gal(b1-4)[Fuc(a1-3)]GlcNAc(b1-3)Gal(b1-4)[Fuc(a1-3)]GlcNAc
Method in brief: as §1

[16] = biological target: Neu5Ac(a2-6)Gal(b1-4)GlcNAc6S
Method in brief: as §1

Neu5Ac(a2-6)GalNAc = biological target: Neu5Ac(a2-6)GalNAc
Method in brief: as §1

[17] = biological target: Neu5Ac(a2-6)GalNAc(b1-4)GlcNAc
Method in brief: as §1

Neu5Ac(a2-8)Neu5Ac = biological target: Neu5Ac(a2-8)Neu5Ac
Method in brief: as §1

[18] = biological target: Neu5Ac(a2-8)Neu5Ac(a2-3)Gal(b1-4)Glc
Method in brief: as §1

[19] = biological target: Neu5Ac(a2-8)Neu5Ac(a2-3)[GalNAc(b1-4)]Gal(b1-4)Glc
Method in brief: as §1

[20] = biological target: Neu5Ac(a2-8)Neu5Ac(a2-8)Neu5Ac
Method in brief: as §1

[21] = biological target: Neu5Ac(a2-8)Neu5Ac(a2-8)Neu5Ac(a2-3)Gal(b1-4)Glc
Method in brief: as §1

[22] = biological target: Neu5Ac(a2-8)Neu5Ac(a2-8)Neu5Ac(a2-3)[GalNAc(b1-4)]Gal(b1-4)Glc
Method in brief: as §1

[23] = biological target: Neu5Ac(a2-8)Neu5Ac(a2-8)Neu5Ac(a2-8)Neu5Ac(a2-3)[GalNAc(b1-4)]Gal(b1-4)Glc
Method in brief: as §1

Neu5Ac(b1-6)GalNAc = biological target: Neu5Ac(b1-6)GalNAc
Method in brief: as §1

[24] = biological target: Neu5Ac(b2-6)Gal(b1-4)GlcNAc
Method in brief: as §1

[25] = biological target: Neu5Ac9Ac(a2-6)Gal(b1-4)GlcNAc
Method in brief: as §1

[26] = biological target: Neu5Gc(a2-3)Gal(b1-3)GlcNAc
Method in brief: as §1

[27] = biological target: Neu5Gc(a2-3)Gal(b1-3)[Fuc(a1-4)]GlcNAc
Method in brief: as §1

Neu5Gc(a2-3)Gal(b1-4)Glc = biological target: Neu5Gc(a2-3)Gal(b1-4)Glc
Method in brief: as §1

[28] = biological target: Neu5Gc(a2-3)Gal(b1-4)GlcNAc
Method in brief: as §1

[29] = biological target: Neu5Gc(a2-3)Gal(b1-4)[Fuc(a1-3)]GlcNAc
Method in brief: as §1

[30] = biological target: Neu5Gc(a2-6)Gal(b1-4)GlcNAc
Method in brief: as §1

Neu5Gc(a2-6)GalNAc = biological target: Neu5Gc(a2-6)GalNAc
Method in brief: as §1

B1: MMR (Homo sapiens), P22897 (protein)
chain: MRLPLLLVFASVIPGAVLLLDTRQFLIYNEDHKRCVDAVSPSAVQTAACNQDAESQKFRWVSESQIMSVAFKLCLGVPSKTDWVAITLYACDSKSEFQKWECKNDTLLGIKGEDLFFNYGNRQEKNIMLYKGSGLWSRWKIYGTTDNLCSRGYEAMYTLLGNANGATCAFPFKFENKWYADCTSAGRSDGWLWCGTTTDYDTDKLFGYCPLKFEGSESLWNKDPLTSVSYQINSKSALTWHQARKSCQQQNAELLSITEIHEQTYLTGLTSSLTSGLWIGLNSLSFNSGWQWSDRSPFRYLNWLPGSPSAEPGKSCVSLNPGKNAKWENLECVQKLGYICKKGNTTLNSFVIPSESDVPTHCPSQWWPYAGHCYKIHRDEKKIQRDALTTCRKEGGDLTSIHTIEELDFIISQLGYEPNDELWIGLNDIKIQMYFEWSDGTPVTFTKWLRGEPSHENNRQEDCVVMKGKDGYWADRGCEWPLGYICKMKSRSQGPEIVEVEKGCRKGWKKHHFYCYMIGHTLSTFAEANQTCNNENAYLTTIEDRYEQAFLTSFVGLRPEKYFWTGLSDIQTKGTFQWTIEEEVRFTHWNSDMPGRKPGCVAMRTGIAGGLWDVLKCDEKAKFVCKHWAEGVTHPPKPTTTPEPKCPEDWGASSRTSLCFKLYAKGKHEKKTWFESRDFCRALGGDLASINNKEEQQTIWRLITASGSYHKLFWLGLTYGSPSEGFTWSDGSPVSYENWAYGEPNNYQNVEYCGELKGDPTMSWNDINCEHLNNWICQIQKGQTPKPEPTPAPQDNPPVTEDGWVIYKDYQYYFSKEKETMDNARAFCKRNFGDLVSIQSESEKKFLWKYVNRNDAQSAYFIGLLISLDKKFAWMDGSKVDYVSWATGEPNFANEDENCVTMYSNSGFWNDINCGYPNAFICQRHNSSINATTVMPTMPSVPSGCKEGWNFYSNKCFKIFGFMEEERKNWQEARKACIGFGGNLVSIQNEKEQAFLTYHMKDSTFSAWTGLNDVNSEHTFLWTDGRGVHYTNWGKGYPGGRRSSLSYEDADCVVIIGGASNEAGKWMDDTCDSKRGYICQTRSDPSLTNPPATIQTDGFVKYGKSSYSLMRQKFQWHEAETYCKLHNSLIASILDPYSNAFAWLQMETSNERVWIALNSNLTDNQYTWTDKWRVRYTNWAADEPKLKSACVYLDLDGYWKTAHCNESFYFLCKRSDEIPATEPPQLPGRCPESDHTAWIPFHGHCYYIESSYTRNWGQASLECLRMGSSLVSIESAAESSFLSYRVEPLKSKTNFWIGLFRNVEGTWLWINNSPVSFVNWNTGDPSGERNDCVALHASSGFWSNIHCSSYKGYICKRPKIIDAKPTHELLTTKADTRKMDPSKPSSNVAGVVIIVILLILTGAGLAAYFFYKKRRVHLPQEGAFENTLYFNSQSSPGTSDMKDLVGNIEQNEHSVI
[1]
  glycan array binding signal (z-score): -0.365
[2]
  glycan array binding signal (z-score): -0.424
[3]
  glycan array binding signal (z-score): 0.374
[4]
  glycan array binding signal (z-score): 0.363
[5]
  glycan array binding signal (z-score): 0.087
[6]
  glycan array binding signal (z-score): -0.377
[7]
  glycan array binding signal (z-score): -0.363
Neu5Ac(a2-3)GalNAc
  glycan array binding signal (z-score): -0.395
[8]
  glycan array binding signal (z-score): -0.381
[9]
  glycan array binding signal (z-score): -0.388
[10]
  glycan array binding signal (z-score): -0.307
[11]
  glycan array binding signal (z-score): -0.237
Neu5Ac(a2-6)Gal
  glycan array binding signal (z-score): -0.378
Neu5Ac(a2-6)Gal(b1-4)Glc
  glycan array binding signal (z-score): -0.384
[12]
  glycan array binding signal (z-score): -0.407
[13]
  glycan array binding signal (z-score): -0.418
[14]
  glycan array binding signal (z-score): -0.449
[15]
  glycan array binding signal (z-score): 1.46
[16]
  glycan array binding signal (z-score): -0.155
Neu5Ac(a2-6)GalNAc
  glycan array binding signal (z-score): -0.376
[17]
  glycan array binding signal (z-score): -0.398
Neu5Ac(a2-8)Neu5Ac
  glycan array binding signal (z-score): 0.065
[18]
  glycan array binding signal (z-score): 0.684
[19]
  glycan array binding signal (z-score): 0.441
[20]
  glycan array binding signal (z-score): 0.829
[21]
  glycan array binding signal (z-score): 0.78
[22]
  glycan array binding signal (z-score): 0.262
[23]
  glycan array binding signal (z-score): 0.701
Neu5Ac(b1-6)GalNAc
  glycan array binding signal (z-score): -0.43
[24]
  glycan array binding signal (z-score): -0.394
[25]
  glycan array binding signal (z-score): -0.397
[26]
  glycan array binding signal (z-score): 0.095
[27]
  glycan array binding signal (z-score): -0.05
Neu5Gc(a2-3)Gal(b1-4)Glc
  glycan array binding signal (z-score): -0.087
[28]
  glycan array binding signal (z-score): 0.122
[29]
  glycan array binding signal (z-score): -0.097
[30]
  glycan array binding signal (z-score): -0.08
Neu5Gc(a2-6)GalNAc
  glycan array binding signal (z-score): -0.244
